Experimental data reported in the supplement of paper PMC8007513.
Counter-ions that a name gives are not always drawn. ± gives the standard error. Out of some 1,300 compounds screened, about 75 (6%) showed an effect of 50% or more. The list shows a part of the results.

Test system: Trichoderma virens ATCC 9645
Test: growth yield (OD600) relative to untreated control; higher = less growth inhibition
Conditions: compound concentration: 100 uM
Outline: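 Plates were read for OD600 at 40 h and 72 h after Trichoderma virens ATCC 9645 spores (15,000 spores ml^−1 in potato dextrose broth) were grown at 30 °C with library compounds at 100 μM final, with or without a biocide at 200 ng ml^−1. Growth is stated relative to the control with neither agent, as the mean of duplicate screens.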

Row | Compound | growth yield (40 h) [%] | growth yield (72 h) [%]
1 | C=CCOC(Cn1ccnc1)c1ccc(Cl)cc1Cl (centres undefined) [Enilconazole] | 3.49 | 3.04 ± 0.32
2 | CC[C@@H](CO)NCCN[C@@H](CC)CO [Ethambutol dihydrochloride] | 105 ± 3.3 | 103 ± 2.3
3 | CC(CN(C)C)C(C)(O)Cc1ccc(Cl)cc1 (centres undefined) [Clobutinol hydrochloride] | 105 ± 3.5 | 104 ± 2.5
4 | C[C@]1(Cn2ccnn2)[C@H](C(=O)O)N2C(=O)C[C@H]2S1(=O)=O [Tazobactam] | 98.96 ± 0.79 | 96.8 ± 1.4
5 | CC(=O)OCC(=O)[C@@]1(OC(C)=O)[C@@H](C)C[C@H]2[C@@H]3C[C@H](F)C4=CC(=O)C=C[C@]4(C)[C@@]3(F)[C@@H](O)C[C@@]21C [Diflorasone Diacetate] | 106 ± 5.9 | 107 ± 6.7
6 | CCCOc1ccc(C(=O)OCCN(CC)CC)cc1N [Proparacaine hydrochloride] | 101 ± 2.9 | 99.2 ± 2.9
7 | CCCCC1(COC(=O)CCC(=O)O)C(=O)N(c2ccccc2)N(c2ccccc2)C1=O [Suxibuzone] | 95.94 ± 1.4e-14 | 93.13 ± 0.63
8 | COc1cc(NC(C)CCCN)c2ncccc2c1 (centres undefined) [Primaquine diphosphate] | 108 ± 9.4 | 111 ± 8.4
9 | CCCCNc1c(C(=O)OCC)c(C)nc2c1cnn2CC [Tracazolate hydrochloride] | 38.1 ± 16 | 60.5 ± 13
10 | COc1cc(-c2ccc(=O)[nH]n2)ccc1OC(F)F [Zardaverine] | 97.1 ± 6.8 | 96.8 ± 5.1
11 | CC/C(=C(/CC)c1ccc(O)cc1)c1ccc(O)cc1 [Diethylstilbestrol] | 81.6 ± 3.2 | 77.3 ± 3.9
12 | CC1=C(/C=C/C(C)=C/C=C/C(C)=C\C(=O)O)C(C)(C)CCC1 [Isotretinoin] | 99.4 ± 7.3 | 96.7 ± 6.9
13 | CSc1ccc2c(c1)N(CCC1CCCCN1C)c1ccccc1S2 (centres undefined) [Thioridazine hydrochloride] | 53.8 ± 6.2 | 83 ± 2.6
14 | NC(N)=Nc1nc(CSCC/C(N)=N/S(N)(=O)=O)cs1 [Famotidine] | 103 ± 1.9 | 101 ± 1.3
15 | Cc1cc(-c2ccccc2)nnc1NCCN1CCOCC1 [Minaprine dihydrochloride] | 100 ± 7.5 | 98.7 ± 3.7
16 | CN(C)[C@@H]1C(O)=C(C(N)=O)C(=O)[C@@]2(O)C(O)=C3C(=O)c4c(O)cccc4[C@@](C)(O)[C@H]3[C@H](O)[C@@H]12 [Oxytetracycline dihydrate] | 76.2 ± 4.5 | 67.4 ± 4.9
17 | Cc1ccsc1/C=C/C1=NCCCN1C [Morantel tartrate] | 101.2 ± 0.48 | 100 ± 0.63
18 | CN(C)c1ccc(O)c2c1C[C@H]1C[C@H]3[C@H](N(C)C)C(O)=C(C(N)=O)C(=O)[C@@]3(O)C(O)=C1C2=O [Minocycline hydrochloride] | 95.3 ± 0.64 | 97.4 ± 2
19 | Nc1nc(NC2CC2)c2ncn([C@H]3C=C[C@@H](CO)C3)c2n1 [Abacavir Sulfate] | 97.2 ± 2.5 | 98.48 ± 0.1
20 | CCN(CC)CCNc1ccc(CO)c2sc3ccccc3c(=O)c12 [Hycanthone] | 118 ± 4.1 | 114.7 ± 0.63
21 | CN(Cc1cnc2nc(N)nc(N)c2n1)c1ccc(C(=O)N[C@@H](CCC(=O)O)C(=O)O)cc1 (racemic) [Amethopterin (R,S)] | 92.4 ± 0.95 | 94.08 ± 0.1

Row | Compound | growth yield (40 h) [%] | growth yield (72 h) [%]
22 | O=C(COc1ccc(Cl)cc1)N1CCN(Cc2ccc3c(c2)OCO3)CC1 [Fipexide hydrochloride] | 94.8 ± 1.4 | 102 ± 1.1
23 | CNC(C)CCC=C(C)C (centres undefined) [Isometheptene mucate] | 99.1 ± 3.8 | 96.2 ± 4.3
24 | CCOC(=O)c1ccc(N)cc1 [Benzocaine] | 91.33 ± 0.48 | 86.6 ± 1.5
25 | OC(CCCN1CCCCC1)(c1ccccc1)c1ccccc1 [Diphenidol hydrochloride] | 95.14 ± 0.79 | 98.6 ± 3.1
26 | CCN(CC)CCOC(=O)C(c1ccccc1)c1ccccc1 [Adiphenine hydrochloride] | 98.8 ± 7.6 | 96.9 ± 5.5
27 | C[C@]12CC[C@@H]3c4ccc(OS(=O)(=O)O)cc4CC[C@H]3[C@@H]1CCC2=O [Estropipate] | 93.9 ± 2.1 | 91.87 ± 0.42
28 | COc1cccc(OC)c1C(=O)N[C@@H]1C(=O)N2[C@@H]1SC(C)(C)[C@@H]2C(=O)O [Methicillin sodium] | 110 ± 2.1 | 104 ± 1.8
29 | Cc1ccc(S(=O)(=O)NC(=O)NN2CCCCCC2)cc1 [Tolazamide] | 101 ± 2.2 | 103 ± 1.4
30 | Nc1ccc(S(=O)(=O)Nc2ccccn2)cc1 [Sulfapyridine] | 98.6 ± 3 | 97.7 ± 2.5
31 | Nc1ccn([C@@H]2O[C@H](CO)[C@@H](O)[C@@H]2O)c(=O)n1 [Cytarabine] | 96.9 | 99.84 ± 0.84
32 | COc1ccnc(C[S+]([O-])c2nc3cc(OC(F)F)ccc3[nH]2)c1OC (centres undefined) [Pantoprazole sodium] | 88.2 ± 6.2 | 94 ± 3.8
33 | C[C@@H]1C[C@H]2[C@@H]3C[C@H](F)C4=CC(=O)C=C[C@]4(C)[C@@]3(F)[C@@H](O)C[C@]2(C)[C@@]1(O)C(=O)COC(=O)C(C)(C)C [Flumethasone pivalate] | 106 ± 7.2 | 104 ± 5.3
34 | CCOc1ccccc1OC(c1ccccc1)C1CNCCO1 (centres undefined) [Reboxetine mesylate] | 99 ± 3.6 | 98 ± 4.6
35 | CN(C)CCCN1c2ccccc2Sc2ccc(Cl)cc21 [Chlorpromazine hydrochloride] | 68.8 ± 2.1 | 86.52 ± 0.32
36 | COc1ccc(CC2c3cc(OC)c(OC)cc3CC[N+]2(C)CCC(=O)OCCCCCOC(=O)CC[N+]2(C)CCc3cc(OC)c(OC)cc3C2Cc2ccc(OC)c(OC)c2)cc1OC (centres undefined) [Atracurium besylate] | 102 ± 4 | 98.7 ± 3.5
37 | CC(=O)[C@H]1CC[C@H]2[C@@H]3CC=C4C[C@@H](O)CC[C@]4(C)[C@H]3CC[C@]12C [Pregnenolone] | 93.6 ± 2.7 | 94.9 ± 2
38 | CCN(CCO)CCCC(C)Nc1ccnc2cc(Cl)ccc12 (centres undefined) [Hydroxychloroquine sulfate] | 108 ± 6.2 | 108 ± 5.2
39 | CCCCN1CCCCC1C(=O)Nc1c(C)cccc1C (centres undefined) [Bupivacaine hydrochloride] | 102 ± 1.3 | 103 ± 1.3
40 | CCOC(=O)NNc1nncc2ccccc12 [Todralazine hydrochloride] | 99.6 ± 3 | 94.39 ± 0.21
41 | CC(C)(C)c1ccc(C(O)CCCN2CCC(C(O)(c3ccccc3)c3ccccc3)CC2)cc1 (centres undefined) [Terfenadine] | 90.2 | 96.9
42 | CC(COc1ccccc1)NC(C)C(O)c1ccc(O)cc1 (centres undefined) [Isoxsuprine hydrochloride] | 101 ± 1.1 | 98.6 ± 2.3
